Measurements: the supplement of paper PMC3334620
Over roughly 33,000 sequences, “E-score (-0.5 to 0.5)” has its median near -0.012; the highest 2% begin near 0.29. Some of the results follow.

Target: T1, Ybr033w (UniProt P38073)
T1 sequence: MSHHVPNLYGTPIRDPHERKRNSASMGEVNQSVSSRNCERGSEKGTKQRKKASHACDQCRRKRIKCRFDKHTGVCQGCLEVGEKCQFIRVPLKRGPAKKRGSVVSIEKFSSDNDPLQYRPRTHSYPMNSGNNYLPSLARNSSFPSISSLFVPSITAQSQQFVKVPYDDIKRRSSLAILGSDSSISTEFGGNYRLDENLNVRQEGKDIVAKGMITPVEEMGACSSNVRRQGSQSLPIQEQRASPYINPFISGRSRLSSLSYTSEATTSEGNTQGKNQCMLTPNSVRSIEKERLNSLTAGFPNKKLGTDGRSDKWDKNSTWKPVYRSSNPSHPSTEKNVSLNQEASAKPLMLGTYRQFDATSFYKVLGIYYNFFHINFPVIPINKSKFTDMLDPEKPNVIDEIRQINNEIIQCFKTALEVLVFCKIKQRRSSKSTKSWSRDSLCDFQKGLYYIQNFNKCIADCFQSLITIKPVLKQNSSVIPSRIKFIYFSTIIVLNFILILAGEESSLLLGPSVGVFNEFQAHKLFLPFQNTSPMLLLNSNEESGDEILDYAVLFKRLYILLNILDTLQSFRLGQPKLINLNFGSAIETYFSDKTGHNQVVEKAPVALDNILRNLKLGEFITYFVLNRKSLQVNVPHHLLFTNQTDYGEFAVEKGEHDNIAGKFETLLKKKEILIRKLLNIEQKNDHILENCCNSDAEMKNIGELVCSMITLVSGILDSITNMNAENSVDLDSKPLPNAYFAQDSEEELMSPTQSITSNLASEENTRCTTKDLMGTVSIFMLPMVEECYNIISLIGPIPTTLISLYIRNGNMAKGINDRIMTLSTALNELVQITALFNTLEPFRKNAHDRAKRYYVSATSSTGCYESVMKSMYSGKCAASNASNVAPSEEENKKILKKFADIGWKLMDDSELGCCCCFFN
Test: PBM E-score (8-mer binding enrichment) (E-score (-0.5 to 0.5)); higher = stronger / more preferred TF binding; most listed sequences are background and not binding sites
Details: protein concentration: 200 nM; construct: GST-full length
Outline: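 Each ungapped eight-base word and its reverse complement, pooled, received an E-score from the Universal PBM Analysis Suite. Underlying scans, normalised with masliner, recorded fluorescent anti-GST bound to GST-tagged yeast transcription factors. These were applied at about 100-200 nM to universal all-10-mer Agilent arrays double-stranded by primer extension.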

Row | Sequence | PBM E-score
1 | CGGTGAAG | -0.19
2 | ACGTCAGA | -0.144
3 | CCTTCCCA | -0.094
4 | AGTGGGAT | 0.0917
5 | AAGACCCA | -0.318
6 | GCACACGC | -0.0899
7 | AAATAACA | 0.11
8 | CTAATACA | 0.129
9 | GATACGGC | -0.173
10 | TAATCTAA | 0.236
11 | CCAGAAGC | -0.0153
12 | ACATTACT | 0.173
13 | GAGTAATA | 0.334
14 | AGACTCTC | -0.00792
15 | CCATTAAC | 0.163
16 | TCGTGGAA | 0.23
17 | CGAGATTA | 0.182
18 | AAGAAGCC | 0.134
19 | CTTCACAC | 0.154
20 | ATAGTAGG | 0.0146
21 | AGGTTCAA | 0.209
22 | CTGTGCGC | -0.0301
23 | TACCTAAA | 0.185
24 | GGGCGGAC | -0.276
25 | ATAACTGA | 0.123

Row | Sequence | PBM E-score
26 | TGGCACAA | -0.0455
27 | GTTGAAAC | 0.0194
28 | CATCTGCG | -0.0635
29 | CGTTTTGA | 0.0382
30 | AGTTGAAA | 0.129
31 | CCAGTGGA | -0.101
32 | CCGACAAG | -0.00476
33 | ATATGTGA | 0.152
34 | CCCTCTCC | -0.391
35 | CTCCGGGA | -0.00229
36 | AGATGCGA | -0.0333
37 | CCAAGAGA | -0.00974
38 | ACCTCGGA | 0.0486
39 | AAGCGAGA | -0.0861
40 | GACCCGGC | -0.149
41 | GCGGCACA | -0.2
42 | GGTTCGGA | -0.196
43 | CACGTTGA | 0.068
44 | TCTACAGA | 0.0158
45 | ATTTAACC | 0.21
46 | GTTTAGCA | 0.0173
47 | ATGAGCGA | 0.0554
48 | AGCAAACG | -0.215
49 | ACCTAAGG | -0.177
50 | ATGGGATG | -0.13

Row | Sequence | PBM E-score
51 | CTGGCACA | -0.127
52 | ATTTTCGC | 0.106
53 | AATAGCAC | -0.215
54 | GCGTAGTA | -0.147
55 | CAAATGAC | -0.0187
56 | GTCATCAA | -0.0385
57 | AACTCAAC | 0.155
58 | GCCAGGCC | -0.257
59 | CACTTGTC | -0.0719
60 | GGGCTTTA | -0.186
61 | ACGCTGAA | -0.0284
62 | CTAGCCGA | -0.0763
63 | GCGCCTCC | -0.102
64 | TAACTCCA | 0.0862
65 | AAGACCGT | -0.131
66 | CTTATGGC | -0.0697
67 | GTCCAACA | 0.0495
68 | CTCGCTGC | -0.0818
69 | AGTCCCGA | -0.283
70 | AACGTCAT | 0.0247
71 | AGTTAGGC | 0.0352
72 | AGCATCAA | 0.134
73 | ACGTCCGG | -0.225
74 | CGAGACCG | -0.0824
75 | GGCAATAC | 0.114

Row | Sequence | PBM E-score
76 | GCCTTCGA | -0.0379
77 | AAAAGATA | 0.206
78 | CCATCCCG | -0.331
79 | CTTATCCA | 0.0666
80 | ACCATGGC | -0.0531
81 | GATTTGCA | 0.0485
82 | AACCGATA | 0.198
83 | TATCTCAA | 0.32
84 | AACTCCTG | -0.133
85 | ACATCTAG | 0.136
86 | ATCAACAC | 0.093
87 | CTTCATAC | 0.0503
88 | CTGAAAGA | 0.0365
89 | CCGTGCGA | -0.0462
90 | TCTAGACA | 0.102
91 | AAGCAGAC | -0.13
92 | AGTGGAAA | 0.146
93 | ACGTAAGA | 0.0618
94 | GACTCGAA | -0.0703
95 | TAATTCAA | 0.21
96 | ATCGGGCC | -0.322
97 | CTGTCGCC | -0.151
98 | GCGAGTCC | -0.202
99 | CTTGAGCC | -0.0801
100 | AATCAACA | 0.274

Row | Sequence | PBM E-score
101 | CGCCTGGA | -0.0495
102 | GAGCTCTA | -0.173
103 | CTGTCAAA | 0.0976
104 | ATAGGCAT | -0.049
105 | ACTACTAT | 0.328
106 | GTCACACA | -0.0431
107 | GATGGCGC | -0.192
108 | CGTGGATC | -0.066
109 | AAATGGGA | -0.0448
110 | CAAATTGG | 0.275
111 | AGACGGCC | -0.248
112 | GCGAAAAA | 0.153
113 | CATCTAAG | -0.0174
114 | AGACCTAC | -0.016
115 | TCGATAAA | 0.167
116 | CACTTTGG | -0.00968
117 | GCCTTCAC | -0.111
118 | AGGGGTTA | -0.198
119 | GGCTTGAA | -0.0336
120 | CCAACCCG | -0.12
121 | AACATGCA | 0.16
122 | AGACCCTG | -0.13
123 | GGTTTTAA | 0.212
124 | TAATCGAA | 0.125
125 | CCTAGCTC | -0.0965

Row | Sequence | PBM E-score
126 | CAAGATGG | -0.0299
127 | CCACTGCA | -0.149
128 | GTGCTTTA | 0.0785
129 | CCTTTGCC | -0.204
130 | AATTCGTA | 0.139
131 | GAGAGCGA | -0.0834
132 | CACACATG | -0.0642
133 | GGTGTGAA | 0.228
134 | CCTAATAG | 0.0136
135 | ACATTAGA | 0.0894
136 | CGTTGCAG | -0.118
137 | AATGGCGA | 0.0772
138 | ACACCGTG | -0.29
139 | CCGGTTGC | 0.0373
140 | ATATAGAG | -0.0546
141 | CAGAATCG | 0.0472
142 | ACCTCCTA | -0.101
143 | AGTTACAC | 0.224
144 | GCAGGATA | -0.103
145 | AGTTGGAT | 0.288
146 | CGACATAC | -0.124
147 | GACGGCAC | -0.147
148 | GTAAAGTA | 0.174
149 | GCACGACC | -0.145
150 | CCAATGTA | 0.0738

Row | Sequence | PBM E-score
151 | AACCAGAG | -0.0719
152 | CAAGTGTC | 0.00092
153 | AAGCGGGT | -0.0734
154 | ATTCCCTC | 0.0513
155 | GAACAGAA | 0.0638
156 | CCTTAAGA | -0.0583
157 | AGCCGGAC | -0.18
158 | CGCAGGTA | 0.0594
159 | CGCCCCCC | -0.434
160 | GGGGAGAA | -0.101
161 | CCGGTTAA | 0.0993
162 | CGTTACTC | -0.102
163 | GACCCGAC | -0.257
164 | TATCATGA | 0.115
165 | ACCTAGAA | 0.131
166 | CCAAACGG | -0.136
167 | ACCTTATA | 0.146
168 | GCCTTCCA | -0.146
169 | AATTGGCC | -0.129
170 | ATTTATAC | 0.278
171 | CTCGGCCA | 0.00302
172 | AAAGTTTG | 0.239
